± gives the standard deviation of the averaged measurements. Some of the results follow.
test system: PfAP2-LT AP2 domain (GST-tagged); experiment: gcPBM binding intensity (ln(normalized median fluorescence intensity)); higher = stronger DNA binding
Summary of the method: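 GST-tagged P. falciparum DNA-binding domains produced in E. coli were incubated for 1 h on an Agilent 4 × 180k array of primer-extended double-stranded 36-bp intergenic genomic probes with negative controls. Binding intensity is the highest Masliner-normalised natural-log median intensity across replicate spots of either probe orientation, with bound protein detected by Alexa488 anti-GST antibody at 488 nm.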

Sequence	gcPBM binding intensity (ln)
GTAACATTTTAAATATATACATATAATGTATTTATA [GTGCAC_negctrl_site344]	8.56 ± 0.43
ATTAATTAAAAGGGAACACATAGAAATTATAAAACA [GTGCAC_negctrl_site420]	8.76 ± 0.51
ATATATATATTATGGGGTACAAACATCAAAAGATTT [XGTACX_site3944]	8.72 ± 0.4
TGTTGTATCAATTTTTGTACATAACACATATGTATA [XGTACX_site3666]	8.79 ± 0.39
ATTAAACCGTGGGAGCACACACACACACACACACAT [TGCATGCA_negctrl_site72]	10.6 ± 0.4
TTTTGTTATTATAAATAGTAACATTTGTGAATATAT [TGCATGCA_negctrl_site132]	8.37 ± 0.48
AAGACATTTTTTTGTTGTACGTCTTCATTTATTGTA [XGTACX_site2890]	8.93 ± 0.4
AACAAATAAAAAAAAATAAAAATAAAAATAAAAAAA [XGTACX_negctrl_site451]	8.62 ± 0.72
TTTAAAATTATAAGGATTAAAAAAAAAAAAAATAAA [CACACA_negctrl_site114]	8.12 ± 0.57
TTATTTATGAAGTATACACACAATATAGATTTATAT [CACACA_site6703]	8.7 ± 0.42
AAGAATTATATTAATAGTACATATATATTAATTTAT [XGTACX_site5713]	8.56 ± 0.44
AATATTACAATTTGGTGTACAGGTGCACATGCCTCA [XGTACX_site1730]	8.93 ± 0.51
TCTACAATTTTAATTACACACTATAAAAAAGAAAGA [CACACA_site5624]	8.54 ± 0.34
TAGCTTATAAGATATGCACACACAACACTTACAAAA [CACACA_site8174]	9.38 ± 0.32
ATAATGAAAACAAGCACACATACATAAAATAAAATA [CACACA_site3257]	9.3 ± 0.48
ATGGAAGGATAATAAAAACCTTTACCTTTCTGTTTA [GTGCAC_negctrl_site380]	8.48 ± 0.45
ATAAATTTTTAAACAGCACACATAAATATAATATAT [CACACA_site8691]	8.84 ± 0.4
TATTTTATATTTTATGCACACTTATAAGAAATATGT [CACACA_site5647]	8.91 ± 0.32
ATGATTTCACAAGACACACACATACAAATTTATATA [CACACA_site3909]	9.28 ± 0.42

Sequence	gcPBM binding intensity (ln)
CAGTATTACATGAGGACACACACAAAAAAAATATAT [CACACA_site8156]	9.38 ± 0.49
TTAATATATTATCTGGTGCATAAACACGTTATACCT	8.81 ± 0.53
ATAGGTTCCCAAAATGCACACCAATGAAATTATTTA [CACACA_site8081]	8.72 ± 0.37
CAAGCTTTTTCCTTTACACACATTAGTTATTTATAT [CACACA_site6781]	9.16 ± 0.33
ATATTATTTTAAAGTACACACATATATTAAGATATA [CACACA_site5306]	8.71 ± 0.4
TTTAATGTTACTCCTTGTACACAAAATAGTGTTATA [XGTACX_site8416]	8.78 ± 0.45
CTGTAAAAAATATAAACACACATAGAGATATATAAA [CACACA_site6292]	8.96 ± 0.45
TAAGTATATTTTATATGTACTTATATATTTAATTTT [XGTACX_site4615]	8.44 ± 0.39
TATTAATATGGTAATACACACTAATATACTTTTGTT [CACACA_site6860]	8.89 ± 0.5
ATATATATATATATATGTACGTATTCATAAACAACA [XGTACX_site4282]	9.47 ± 0.085
TATTTGTATATTCATTCCTGTATTCCCTTTTTTGTA [CACACA_negctrl_site1236]	8.95 ± 0.49
AAAAAAAAAAAAAATACACACAAATAATAAAAATAA [CACACA_site1431]	9.14 ± 0.57
TGTACGTTTTTTAACACACACACAAAAAAAAAAAAA [CACACA_site6006]	9.04 ± 0.43
ATATATATATATGTATGTACATAATATTTTTTTTAT [XGTACX_site5551]	9.15 ± 0.11
ATACCATATAATTATGTGAGAAAATATAATATTCAT [CACACA_negctrl_site310]	8.74 ± 0.5
ATTTTCTTAAATAAATGTACATGGCATTAAAAGTAA [XGTACX_site5119]	8.49 ± 0.41
AAATAAAATCATGAATGTACACAAAAATTATTGCAA [XGTACX_site5691]	8.87 ± 0.54
TTTGAAGGAAGGGGGGGAGGGGCCATAACAAAGGAA [GTGCAC_negctrl_site408]	9.82 ± 0.16
TTAAATATCCATATTTCACACATTTCGATATATATA [CACACA_site4208]	8.7 ± 0.4

Sequence	gcPBM binding intensity (ln)
TATTTTAGAGAAAAAAATAAATTACAAAATGTTAGG [CACACA_negctrl_site1645]	8.23 ± 0.54
ACTGTACTATAAAATACACACATATAAATATAAATA [CACACA_site3009]	9.04 ± 0.39
CCTAAATAAATGGACACACACATATTTATATTTATA [CACACA_site6789]	9.25 ± 0.42
ATAATGTCATAATTATATCCTTTGGCATAAAATAAA [XGTACX_negctrl_site574]	8.47 ± 0.49
TATAATATTATATAATGTACGCATTTATTATTTAAA [XGTACX_site8326]	8.42 ± 0.38
GAATGTAAATATTAAAGTACACAGAATATATCTTCA [XGTACX_site8149]	8.77 ± 0.47
TTTAACAACTATTTCTGTACACATTTTTATATAATT [XGTACX_site4917]	8.85 ± 0.53
TGAACCCACAAATCACGTACATATATATACACGTGT [XGTACX_site7739]	9.18 ± 0.33
ATATACATTTTAAATTTTAATGTAACCCATGGGAGA [CACACA_negctrl_site588]	8.46 ± 0.33
ATAAATAACTTTTAAATACACACGTAAAATATATTG [CACACA_site3302]	8.78 ± 0.36
ATTTATATTATGAGGAGTACAATACTTATAGATGTA [XGTACX_site7510]	8.61 ± 0.47
GATAGACACGTGCACACATGCAATACTTTATTCAGT [TGCATGCA_site778]	9.46 ± 0.36
AAAAAAGATATATAAACACACATATTTATATACACA [CACACA_site6866]	8.87 ± 0.47
TGTACGAGTCGTAGAGTGCAGTCTGGAGAAACGTAC [GTGCAC_site9682]	9.07 ± 0.49
TATATACGTAATAGTAGTACTTTAAAATGCGGAAAT [XGTACX_site4597]	9.02 ± 0.53
GAATTATATACTTATTGTACAAAAAAAAAAAAAAAA [XGTACX_site3193]	8.36 ± 0.4
TATTCCCCCCAACACACACACACACCGACATACCAC [CACACA_site8723]	10.8 ± 0.26
ATAAACATGTATATATTAAAAAAAAAAAAAAAAAAT [CACACA_negctrl_site92]	8.77 ± 0.49
